The results in this text go back to paper PMC7641798.

Assay [1] has as its target T1, Strep-CFP-Mbl (Bacillus subtilis) (UniProt P39751).
T1 sequence: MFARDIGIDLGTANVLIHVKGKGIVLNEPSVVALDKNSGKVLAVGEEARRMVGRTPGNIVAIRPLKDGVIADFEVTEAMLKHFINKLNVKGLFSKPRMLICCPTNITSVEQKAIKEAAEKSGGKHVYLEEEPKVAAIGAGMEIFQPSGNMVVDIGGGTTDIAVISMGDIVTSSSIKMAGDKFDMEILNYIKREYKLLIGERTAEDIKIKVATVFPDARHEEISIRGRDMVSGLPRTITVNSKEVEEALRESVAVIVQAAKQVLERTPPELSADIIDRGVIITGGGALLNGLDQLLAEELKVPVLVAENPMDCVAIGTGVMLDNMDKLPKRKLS
As to the kind of experiment: fluorescence microscopy of filaments on a supported lipid bilayer; a second paralog added to preformed filaments of a first paralog; data not shown; both purified.

Assay [2] has as its target T2, Strep-YFP-MreB from B. subtilis (Bacillus subtilis) (UniProt Q01465).
T2 sequence: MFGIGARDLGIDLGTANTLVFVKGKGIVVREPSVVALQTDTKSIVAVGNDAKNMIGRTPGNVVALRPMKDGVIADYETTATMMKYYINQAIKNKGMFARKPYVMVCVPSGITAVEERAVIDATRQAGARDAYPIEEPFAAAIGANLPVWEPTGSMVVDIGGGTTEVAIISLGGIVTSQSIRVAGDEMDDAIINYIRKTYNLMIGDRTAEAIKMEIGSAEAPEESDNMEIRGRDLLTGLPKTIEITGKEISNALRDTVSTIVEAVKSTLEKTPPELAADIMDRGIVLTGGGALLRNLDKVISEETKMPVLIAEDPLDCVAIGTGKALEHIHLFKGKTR
As to the kind of experiment: fluorescence microscopy of filaments on a supported lipid bilayer; all three paralogs mixed, each 1 μM, on a planar membrane, ion-induced polymerization, confocal microscopy; both purified.

Assay [3] deals with T1, Strep-CFP-Mbl (Bacillus subtilis). Nature of the assay: condition: only isolated monomers, polymerization not induced; 50 nM; mass photometry; Refeyn OneMP, isolated monomers, 50 nM final concentration in sample buffer, room temperature; both purified.
The target of assay [4] is T2, Strep-YFP-MreB from B. subtilis (Bacillus subtilis). As to the kind of experiment: fluorescence microscopy of filaments on a supported lipid bilayer; 2 μM of a second paralog added to pre-polymerized filaments (2 μM) of a first paralog on a planar membrane, after washing, second polymerization; both purified.
For assay [5], the target named is T1, Strep-CFP-Mbl (Bacillus subtilis). As to the kind of experiment: condition: only isolated monomer peak, polymerization not induced; sucrose density gradient ultracentrifugation; 5-15% (w/v) sucrose gradient, isolated monomer peaks from gel filtration, SW40Ti, 38.000 x g, 4 °C, about 16 h; Biorad gel filtration standard as reference; both purified.
Assay [6] shares this target. As to the kind of experiment: condition: only expression under osmotic stress and purification buffer with 300 mM NaCl, 1 mM EDTA; SEC; Superdex 200 Increase 10/300 GL after streptactin purification; expression overnight under osmotic stress (500 mM sorbitol, 1 mM betaine); purification buffer 100 mM Tris HCl, 300 mM NaCl, 1 mM EDTA, 0.2 mM ATP, 5% glycerol pH 7.5; monomer peak (fraction A6); both purified.

For assay [7] the target is unchanged. As to the kind of experiment: fluorescence microscopy of filaments on a supported lipid bilayer; purified protein(s), alone or two mixed, on a planar membrane of E. coli polar lipids in low salt buffer (5 mM TRIS-HCl, 0.1 mM CaCl2, 0.2 mM ATP, pH 7.5), room temperature; polymerization induced with divalent cations (10 mM MgCl2 if not stated otherwise), washed; epifluorescence or STED; KCl or NaCl added in some samples; both purified.

Assay [8] has as its target T2, Strep-YFP-MreB from B. subtilis (Bacillus subtilis). The description is as above.
The target is the same in assay [9]. As to the kind of experiment: fluorescence microscopy of filaments on a supported lipid bilayer; two paralogs mixed and polymerized; data not shown; both purified.
For assay [10] the target is unchanged. As to the kind of experiment: fluorescence microscopy of filaments on a supported lipid bilayer; a second paralog added to preformed filaments of a first paralog; data not shown; both purified.
The target of assay [11] is T1, Strep-CFP-Mbl (Bacillus subtilis). Nature of the assay: fluorescence microscopy of filaments on a supported lipid bilayer; all three paralogs mixed, each 1 μM, on a planar membrane, ion-induced polymerization, confocal microscopy; both purified.
In assay [12] the target is Strep-mCherry-MreBH (Bacillus subtilis) (UniProt P39763). Nature of the assay: condition: only isolated monomers, polymerization not induced; 50 nM; mass photometry; Refeyn OneMP, isolated monomers, 50 nM final concentration in sample buffer, room temperature; both purified.
Assay [13] deals with T1, Strep-CFP-Mbl (Bacillus subtilis). As to the kind of experiment: fluorescence microscopy of filaments on a supported lipid bilayer; 2 μM of a second paralog added to pre-polymerized filaments (2 μM) of a first paralog on a planar membrane, after washing, second polymerization; both purified.
The target of assay [14] is Strep-mCherry-MreBH (Bacillus subtilis) (UniProt P39763). Nature of the assay: condition: only isolated monomer peak, polymerization not induced; sucrose density gradient ultracentrifugation; 5-15% (w/v) sucrose gradient, isolated monomer peaks from gel filtration, SW40Ti, 38.000 x g, 4 °C, about 16 h; Biorad gel filtration standard as reference; both purified.
Assay [15] has the same target. Nature of the assay: condition: only expression under osmotic stress and purification buffer with 300 mM NaCl, 1 mM EDTA; SEC; Superdex 200 Increase 10/300 GL after streptactin purification; expression overnight under osmotic stress (500 mM sorbitol, 1 mM betaine); purification buffer 100 mM Tris HCl, 300 mM NaCl, 1 mM EDTA, 0.2 mM ATP, 5% glycerol pH 7.5; monomer peak (fraction A6); both purified.

For assay [16] the target is unchanged. As to the kind of experiment: fluorescence microscopy of filaments on a supported lipid bilayer; purified protein(s), alone or two mixed, on a planar membrane of E. coli polar lipids in low salt buffer (5 mM TRIS-HCl, 0.1 mM CaCl2, 0.2 mM ATP, pH 7.5), room temperature; polymerization induced with divalent cations (10 mM MgCl2 if not stated otherwise), washed; epifluorescence or STED; KCl or NaCl added in some samples; both purified.

Results are given in words; binding and its absence hold for the method and conditions named. Some entries that bind do so weakly or less than the wild type. For part of these data: Tags and fused reporters may be left off the sequences shown.

B1: Strep-YFP-MreB from B. subtilis (protein, UniProt Q01465 1-337)
chain: MFGIGARDLGIDLGTANTLVFVKGKGIVVREPSVVALQTDTKSIVAVGNDAKNMIGRTPGNVVALRPMKDGVIADYETTATMMKYYINQAIKNKGMFARKPYVMVCVPSGITAVEERAVIDATRQAGARDAYPIEEPFAAAIGANLPVWEPTGSMVVDIGGGTTEVAIISLGGIVTSQSIRVAGDEMDDAIINYIRKTYNLMIGDRTAEAIKMEIGSAEAPEESDNMEIRGRDLLTGLPKTIEITGKEISNALRDTVSTIVEAVKSTLEKTPPELAADIMDRGIVLTGGGALLRNLDKVISEETKMPVLIAEDPLDCVAIGTGKALEHIHLFKGKTR
With B1, the binding entry in assay [1] was “binds”.

B2: Strep-CFP-Mbl (protein, UniProt P39751 1-333)
chain: MFARDIGIDLGTANVLIHVKGKGIVLNEPSVVALDKNSGKVLAVGEEARRMVGRTPGNIVAIRPLKDGVIADFEVTEAMLKHFINKLNVKGLFSKPRMLICCPTNITSVEQKAIKEAAEKSGGKHVYLEEEPKVAAIGAGMEIFQPSGNMVVDIGGGTTDIAVISMGDIVTSSSIKMAGDKFDMEILNYIKREYKLLIGERTAEDIKIKVATVFPDARHEEISIRGRDMVSGLPRTITVNSKEVEEALRESVAVIVQAAKQVLERTPPELSADIIDRGVIITGGGALLNGLDQLLAEELKVPVLVAENPMDCVAIGTGVMLDNMDKLPKRKLS
As for B2, the binding entry in [2] is on record as “binds”; in assay [3], “no binding”; in [4], “binds”; in [5] it was “no binding”; in [6] it was “no binding”; in assay [7] it was “binds”. Moreover, the binding entry in assay [8] was “binds”.

B3: Strep-mCherry-MreBH (protein, UniProt P39763 1-335)
chain: MFQSTEIGIDLGTANILVYSKNKGIILNEPSVVAVDTTTKAVLAIGADAKNMIGKTPGKIVAVRPMKDGVIADYDMTTDLLKHIMKKAAKSIGMSFRKPNVVVCTPSGSTAVERRAISDAVKNCGAKNVHLIEEPVAAAIGADLPVDEPVANVVVDIGGGTTEVAIISFGGVVSCHSIRIGGDQLDEDIVSFVRKKYNLLIGERTAEQVKMEIGHALIEHIPEAMEIRGRDLVTGLPKTIMLQSNEIQDAMRESLLHILEAIRATLEDCPPELSGDIVDRGVILTGGGALLNGIKEWLTEEIVVPVHVAQNPLESVAIGTGRSLEVIDKLQKAIK
As for B3, the binding entry in assay [9] was “binds”; in assay [10] it was “binds”; in [11], “binds”; in [2], “binds”; in [12], “no binding”; in assay [13] it was “binds”. In addition, the binding entry in assay [14] is “no binding”; in [15] it was “no binding”; in assay [7] it was “binds”; in assay [16], “binds”.
